In PubChem BioAssay AID1159614 (National Center for Advancing Translational Sciences (NCATS), 2016):
Out of some 45,000 compounds screened, about 65 (0.1%) were called active. The call rests on the fitted dose curve; in most records, active means well fitted activation curve with a large enough effect; inconclusive means small, poorly fitted or top-dose-only effect; inactive means no such curve, though single readings can be large or run the other way. The list shows a part of the results.

molecular target: Galactocerebrosidase (Homo sapiens) (UniProt P54803); experiment: A Novel Cell-Based Assay to Identify Small Molecules for B -Galactocerebrosidase; details: 145M-Twi-hGALC-G270D cells, HMU-beta-Gal fluorescence, 48 h; series mostly up to 57.5 µM; activation: at the top concentration; further: 0% is about no effect; nearly all actives have a fitted effect of over 65% in size
How it was run: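 qHTS, 1536-well; 145M-Twi-hGALC-G270D cells (WT line also made) in DMEM/F12 + 10% FBS; compound incubation on live cells; HMU-β-gal 0.1 mM final, pH 5.2, NaTC; carbonate stop; fluorescence increase = enhanced residual activity.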

Sequence of UniProt P54803 (P54803 whole entry, looked up): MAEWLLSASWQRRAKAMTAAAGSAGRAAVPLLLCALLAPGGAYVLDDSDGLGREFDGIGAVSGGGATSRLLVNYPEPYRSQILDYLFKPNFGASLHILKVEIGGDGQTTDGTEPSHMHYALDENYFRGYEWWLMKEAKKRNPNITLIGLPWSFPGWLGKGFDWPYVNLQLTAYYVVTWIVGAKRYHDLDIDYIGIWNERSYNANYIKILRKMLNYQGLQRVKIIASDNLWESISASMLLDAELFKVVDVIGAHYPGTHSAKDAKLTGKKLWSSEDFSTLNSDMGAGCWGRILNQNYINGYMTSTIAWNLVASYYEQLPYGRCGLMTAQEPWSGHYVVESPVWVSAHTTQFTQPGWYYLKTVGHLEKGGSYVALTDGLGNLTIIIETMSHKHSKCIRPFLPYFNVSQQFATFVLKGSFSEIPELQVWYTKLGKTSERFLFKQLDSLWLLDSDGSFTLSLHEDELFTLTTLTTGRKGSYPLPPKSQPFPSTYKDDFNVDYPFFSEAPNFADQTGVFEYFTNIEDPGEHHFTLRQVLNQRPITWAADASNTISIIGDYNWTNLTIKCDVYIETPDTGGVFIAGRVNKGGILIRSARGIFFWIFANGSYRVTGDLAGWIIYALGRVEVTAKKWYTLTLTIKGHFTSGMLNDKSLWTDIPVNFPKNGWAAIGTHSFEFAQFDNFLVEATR

activation, inactive:
CCOC(=O)c1cccc(NC(=O)C(C)n2c(C)c3cnn(-c4ccccc4)c(=O)c3c2C)c1 (stereo not given) -18.5%
COc1ccc(NC(=O)c2ccc3c(c2)CCN3S(=O)(=O)c2ccc(C)cc2)cc1Cl -7.25%
Cc1c(Cl)cccc1NC(=O)CN1C(=O)COc2ccc(S(=O)(=O)Nc3ccccc3)cc21 -12%
CN1CCCC(n2nc(Cc3ccc(Cl)cc3)c3ccccc3c2=O)CC1 (stereo not given) -6.22%
FC(F)(F)C(F)(F)C(F)(F)C(F)(F)C(F)(F)C(F)(F)C(F)(F)C(F)(F)Br -15.9%
COc1ccc(Cl)cc1NC(=O)CCc1c(C)nc2c(c1C)c(=O)n(C)c(=O)n2C -14.8%
CCCSCCCNC(=O)c1ccc(Cn2c(=O)c3cccn3c3cccnc32)cc1 -7.82%
Cc1ccc(NC(=O)CN(C)S(=O)(=O)c2ccc3nc(C)sc3c2)c(C)c1 -12.8%
CC(C)NS(=O)(=O)c1ccc2nc(NC(=O)c3cncc(Br)c3)sc2c1 -6.37%
CC(C)NC(=O)c1ccc(-n2c(-c3ccccc3)cc3c2CCCCC3)cc1 4.61%
Nc1ncc(S(=O)(=O)NCc2ccc(Cl)cc2)cn1 10.1%
COc1ccc(Cl)cc1NC(=O)Cn1cc(C(=O)c2ccncc2)c(=O)c2cc(C)ccc21 -20.9%
Cn1nnc2c(N3CCN(c4ccccc4F)CC3)ncnc21 -7.31%
CCOc1ccc(-c2cc(OC(=O)c3ccccc3)c3c(C)oc(C)c3c(=O)c2)cc1 -3.44%
COc1cc2nc(SCc3cccc(Cl)c3)n3nc(CCn4nc(C)cc4C)nc3c2cc1OC -12.8%
Cc1ccccc1C(=O)Nc1cccc(C(=O)OCc2cc(=O)n3c4c(sc3n2)CCCC4)c1 -17.5%
Cc1ccc(NC(=O)N(Cc2cn(C)c3ccccc23)C2CCCCC2)cc1C -11.8%
O=C(CSc1nc2ccccc2n1Cc1ccccc1F)NCc1ccccc1 -15.7%
CCC(Sc1nc2cc(OC)c(OC)cc2c(=O)n1CCc1ccc(Cl)cc1)C(=O)NCCOC (stereo not given) -12.9%
COc1cc2c(cc1OC)C(COc1ccc(F)cc1)N(C(=O)Cc1ccc(F)cc1)CC2 (stereo not given) -20.7%
Cc1ccc(-n2c(SCC(=O)NCc3ccc(F)cc3)nc3c([nH]c4ccccc43)c2=O)cc1 -5.03%
CCCCNC(=O)CSc1nc2cc3c(cc2c(=O)n1CCCCCC(=O)NCc1ccc2c(c1)OCO2)OCO3 1.64%
COc1ccc(N(CC(=O)NCCc2ccccc2)S(=O)(=O)c2ccccc2)c(OC)c1 -17.1%
Cc1ccc2oc3c(c(=O)c2c1)C(c1ccccc1F)N(CCCN1CCOCC1)C3=O (stereo not given) 6.56%
Cc1ccc(CN(C(=O)COc2cccc([N+](=O)[O-])c2)c2ccccn2)cc1 -5.12%
CCOC(=O)C1CCN(c2ncnc3c2nnn3C)CC1 -17.5%
Cc1ccc(Nc2c(-c3ccncc3)nc3ccc(C)cn23)cc1 -8.48%
CCOc1ccc(OCC)c(S(=O)(=O)N2CCN(c3cccc(C)c3C)CC2)c1 11.1%
CC(C)c1ccc(CNc2nc(-c3ccco3)nn2S(=O)(=O)c2ccc3ccccc3c2)cc1 -14.4%
Cc1cc(C)cc(N2CCn3c2nc2c3c(=O)n(Cc3ccc(Cl)cc3)c(=O)n2C)c1 -3.66%
CCCS(=O)(=O)c1ncc(Cl)c(C(=O)Nc2scc(-c3ccccc3)c2C(=O)OCC)n1 -13%
COc1ccc(CNC(=O)Cn2nnc(-c3ccc(S(C)(=O)=O)cc3)n2)cc1 -18.3%
CN(C)CCC[C@@]1(c2ccc(F)cc2)OCc2cc(C#N)ccc21 -25%
O=S(=O)(c1ccccc1)c1nc(-c2ccc(Cl)cc2Cl)oc1N1CCCCCC1 -27.5%
CC(=O)N[C@@H](CCC(=O)O)C(=O)O -17.5%
COc1ccc(-c2nc(Cn3c(SCc4ccc(C)cc4)nc4cccnc43)c(C)o2)cc1OC -10.3%
CCC1CCCCN1CC(=O)N1CCCc2c1c(=O)oc1ccc(OCc3ccccc3)cc21 (stereo not given) -5.9%
O=C(CCCn1c(=O)c2cccn2c2cccnc21)NCc1ccc(F)cc1 -7.64%
COc1cccc(-c2cc(C(=O)Nc3cc(OC)c(OC)c(OC)c3)on2)c1 -11.8%
COc1cccc2c1cc1c(=O)n(CC(=O)N3CCN(c4cc(Cl)ccc4C)CC3)nc(C)n12 -16.4%
CCOC(=O)c1ccc(NC(=O)C2=C(C)Nc3nc(SCc4ccc(Cl)cc4)nn3C2c2ccc(OC)cc2)cc1 (stereo not given) -7.1%
COc1ccc(-c2nnc(SCC(=O)Nc3ccc(Cl)cc3)s2)cc1 -5.7%
CCN1CCN(c2ccc(NS(=O)(=O)c3c(C)nc4sccn4c3=O)cc2Cl)CC1 -50.4%
COc1ccc(CNC(=O)CCC(=O)N2CCSc3ccccc32)cc1 24%
CCOc1ccc(-n2c(C)nc3cc(C(=O)NCCC4=CCCCC4)ccc32)cc1 -8.02%
COc1ccc(C(=O)CC2(O)C(=O)N(Cc3ccccc3Cl)c3ccccc32)cc1 (stereo not given) 0.636%
CCOc1ccc(CC(=O)NCCc2sc3nc(-c4ccc(OC)cc4)nn3c2C)cc1 -7.69%
CCN(CC)C(=O)c1sc2c(c1C)c(=O)n(-c1ccccc1)c(=O)n2CC(=O)Nc1ccc(C)cc1C -1.65%
Cc1cc(C)cc(NC2=CC(c3cccc(F)c3)N(c3cc(C)cc(C)c3)C2=O)c1 (stereo not given) -15.7%
Cc1cc(=O)n(Cc2cccc(Cl)c2)c2c1c(C)nn2-c1ccccc1 6.99%
Cc1cccc(-n2c(=O)c3c4c(sc3n3cnnc23)CCCC4)c1 -19.3%
CCN1CCN(c2c(S(=O)(=O)c3ccc(C)c(C)c3)cnc3cc(OC)c(OC)cc23)CC1 -18.9%
COc1ccc(CNC(=O)CN(c2ccccc2)S(=O)(=O)N(C)C)cc1 -14.1%
CCOC(=O)c1cc2c(=O)n3ccccc3nc2n(CCCOC)c1=NC(=O)C(C)Oc1ccccc1 (stereo not given) -4.92%
CCOc1cc(CNc2ccc(O)cc2)ccc1OCc1ccc(Cl)cc1 -8.37%
CC1CCN(C(=O)Cn2c(=O)oc3cc(S(=O)(=O)N4CCCCC4)ccc32)CC1 0.786%
CN(C)S(=O)(=O)c1ccc(C(=O)N2CC(=O)Nc3ccc(Br)cc3C2c2ccc(F)cc2)cc1 (stereo not given) -8.84%
Cc1ccc(CNC(=O)c2ccc(Cn3c(SCc4ccccc4F)nc4cccnc43)cc2)cc1 -6.81%
COc1ccc(C(CNC(=O)COc2ccc(Cl)c(C)c2)N2CCOCC2)cc1 (stereo not given) -7.56%
CCOC(=O)Cn1cnc2onc(-c3ccc(F)cc3)c2c1=O -11.6%
CC(=O)Nc1cc(NC(C)=O)cc(-c2nc3ccccc3[nH]2)c1 -11.9%
CCN(CC)S(=O)(=O)c1nnc(NC(=O)COc2ccc(Cl)cc2)s1 0.65%
CCN(CC)CCNC(=O)c1ccc2c(c1)sc1nc(-c3ccc(F)cc3)cn12 -10.4%
CCCCSc1ncnc2c1c(-c1ccccc1)cn2-c1cccc(F)c1 5.8%
CCn1c(C(=O)N2CCC(C(=O)NCCc3ccc(OC)cc3OC)CC2)cc2sccc21 7.9%
CCOC(=O)c1c(C)oc2nc(C)nc(Nc3ccc(CC)cc3)c12 -12%
Cc1cc(C)cc(NS(=O)(=O)c2ccc3c(c2)NC(=O)C(C)S3)c1 (stereo not given) -10.9%
Cc1ccc(C)c(CN2C(=O)c3ccccc3S(=O)c3ccc(C(=O)NCc4ccccc4)cc32)c1 (stereo not given) -13.9%
CCOCCCNC(=O)C1CCC(CNS(=O)(=O)c2ccc(NC(C)=O)cc2)CC1 (stereo not given) -16.3%
COc1ccccc1Cc1nc2ccccc2[nH]c1=O -9.55%
COc1ccc(NC(=O)c2ccc(-c3nc(CSc4ccccc4)c(C)o3)cc2)cc1OC -6.4%
CCc1ccc(S(=O)(=O)c2nnn3c2nc(NC2CCCCCC2)c2sccc23)cc1 -14.5%
CCN1CCN(c2c(S(=O)(=O)c3ccc(OC)cc3)cnc3cc(OC)c(OC)cc23)CC1 -6.18%
Cc1c(C(=O)NCc2ccccc2Br)oc2c1-c1[nH]ncc1CC2 -18.4%
CCOC(=O)C(CC)Sc1ccc2nnc(CCNS(=O)(=O)c3ccc(C)cc3)n2n1 (stereo not given) -16.7%
COc1cccc2c1Oc1ncccc1N(C(=O)Nc1ccc(F)c(Cl)c1)C2 -35.4%
COc1ccc(C(CNC(=O)c2oc3ccc(C)cc3c2C)N2CCOCC2)cc1 (stereo not given) -9.6%
COc1ccc(OC)c(NC(=O)N2CCN(S(=O)(=O)c3ccc4c(ccn4C)c3)CC2)c1 -22.5%
COc1cc(OC)cc(C(=O)Nc2ccc3nc(N4CCCCC4)cc(C)c3c2)c1 -11.4%
CCn1cc(C(=O)N2CCN(c3cccc(Cl)c3)CC2)c(=O)c2cc(S(=O)(=O)N3CCCCC3)ccc21 -31.4%
Cc1ccc2nc(-c3ccc(O)cc3)c(Nc3ccc4c(c3)OCCO4)n2c1 -12.7%
CCCSCCCNC(=O)C1CCN(c2nn3cc(-c4ccc(F)cc4)nc3s2)CC1 9.45%
O=C(NCc1ccccc1Cl)C(=O)NCC(c1cccs1)S(=O)(=O)c1cccs1 (stereo not given) -30.4%
CC(C)Cn1c(=O)c2ccccc2n2c(CCC(=O)N3CCN(c4ccccc4F)CC3)nnc12 -5.87%
CCCn1c(-c2ccc(S(=O)(=O)N3CCOCC3)cc2)csc1=Nc1ccc(OCC)cc1 -9.46%
COc1cccc(C(=O)c2sc3nc(-c4ccccc4)cc(C(F)(F)F)c3c2N)c1 -13.4%
CCOC(=O)c1c(C)oc2ncnc(Nc3ccc(OCC)cc3)c12 -6.91%
Cc1ccc(C)c(N2C(=O)N(Cc3cc(=O)n4ccccc4n3)c3ccccc3S2(=O)=O)c1 -2.93%
Cc1ccc(C)n1-c1nnc(N2CCCC(C(=O)Nc3ccc(C(C)C)cc3)C2)s1 (stereo not given) 5.59%
CCC1CCCCN1CCCNC(=O)c1cc2c(Cl)nc3ccccc3c2s1 (stereo not given) 2.23%
COC(=O)c1ccccc1NC(=O)Cn1c(=O)n(Cc2ccc(C(=O)NCc3ccc4c(c3)OCO4)cc2)c(=O)c2ccccc21 6.02%
COc1cccc(NC(=O)CNC(=O)Cn2c(C)cc3ccccc3c2=O)c1 -9.78%
Cc1ccc(N(CC(=O)NCCc2ccccc2)S(=O)(=O)N(C)C)cc1 -14.3%
N#Cc1ccccc1NC(=O)Cn1cnc2onc(-c3cccc(F)c3)c2c1=O 1.07%
COc1cc(C)ccc1OCCSc1nc2ccc(NC(=O)c3ccc(F)cc3)cc2s1 -16.1%
